Experimental data: PMC6212790
This is one part of the list. At the low end of the ranking the order means little.

Molecular target: T1, GST-Rok-C97-191 (UniProt O34857)
T1 sequence: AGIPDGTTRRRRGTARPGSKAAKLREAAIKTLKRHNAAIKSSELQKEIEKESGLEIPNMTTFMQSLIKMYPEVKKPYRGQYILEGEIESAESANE
Assay: protein binding microarray;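 further: rank score from −0.5 (least bound) to 0.5 (best bound)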
Settings: Rok is a gene silencer of Bacillus subtilis; high values mean tight binding; most listed sequences are background and not binding sites; double strand, one strand shown

Row | Sequence | binding signal [E-score]
1 | AAATAACG | 0.211
2 | ACACAACA | 0.113
3 | ACAAACGA | 0.109
4 | GATGAAAC | -0.0416
5 | GAACCAAA | -0.0881
6 | TCTAGCCA | 0.0129
7 | CAGAAAAG | 0.0765
8 | AGCGGTCG | -0.138
9 | CTGGAACA | -0.13
10 | CACTAGAG | -0.181
11 | AGTTGCAA | 0.136
12 | GGACAATA | -0.0723
13 | CCTCTATA | 0.0169
14 | GTCTTGTA | 0.0394
15 | CATAACGG | -0.0641
16 | TCAGTAGA | 0.307
17 | AGCCAAGG | -0.209
18 | CCAGAAAG | -0.066
19 | GATCTACA | 0.29
20 | CGGAGTTA | 0.0606
21 | GCCCTCGC | -0.334
22 | CTGGACGA | -0.165

Row | Sequence | binding signal [E-score]
23 | CTGGAAAA | 0.107
24 | GTCAGCAA | -0.0683
25 | TGGATACA | 0.0228
26 | CACGAAAA | -0.0184
27 | ATAGAGCA | -0.101
28 | CCTGCTTA | -0.0481
29 | GACGGCCA | -0.126
30 | CTAAGCGC | -0.106
31 | ATCAGCAT | 0.00687
32 | CAGTGCCA | 0.0139
33 | AGCAGGGA | -0.211
34 | GATTAGCA | -0.0905
35 | CGTTAGTA | 0.0633
36 | CACTAGTA | 0.253
37 | CGCAATTC | 0.141
38 | ACATTAGC | 0.0793
39 | CAGTCAAA | -0.138
40 | AGTAACAT | 0.127
41 | ATGGCTAC | -0.124
42 | AGATGGCA | -0.115
43 | AAACACAT | 0.108
44 | AATAACTG | 0.167

Row | Sequence | binding signal [E-score]
45 | AATGAGGA | -0.0807
46 | ACTGGCCT | -0.278
47 | CTATTGTC | -0.0498
48 | AGCGCTAC | 0.144
49 | CGAGTTGA | 0.17
50 | ACCGATAG | 0.074
51 | ACCGATCT | 0.104
52 | GGTCAAAC | -0.117
53 | ACTATTGA | 0.225
54 | ATTTTAAC | 0.203
55 | GCGAGCAC | -0.273
56 | ACAGCGGG | -0.26
57 | AAGGCTTC | -0.21
58 | GGTAACTA | 0.336
59 | CAAGGATG | -0.044
60 | CCGTACTC | 0.0243
61 | CTTATCAA | 0.0662
62 | AGCTCCGC | -0.213
63 | GATATCCC | -0.0628
64 | AAACGTCT | -0.164
65 | ACCCTAAT | -0.031
66 | GTTCACAA | 0.0752

Row | Sequence | binding signal [E-score]
67 | GCTGGTAC | 0.107
68 | ATACCTAA | 0.238
69 | AGAGAAAG | 0.159
70 | AAAAACCG | 0.018
71 | CCATGGCG | -0.0861
72 | GACGAAGA | -0.0457
73 | GATAGTCC | -0.234
74 | CCGAGTGC | -0.133
75 | CACGGCGA | -0.0927
76 | CCTTCCTA | -0.0804
77 | ATCTGCGA | -0.112
78 | ATAGAGGA | 0.0897
79 | CAGCGGGC | -0.264
80 | TCGCAGCA | -0.203
81 | CTTACCAA | 0.0678
82 | ACCCGGAG | 0.000729
83 | AACTTTAA | 0.131
84 | CCCATGAG | 0.0334
85 | CGAGGGGA | -0.265
86 | TCTAGACA | 0.0238
